Test results as given in the RNAGym collection of RNA variant scans (doi:10.7554/elife.90254).
Read counts are not given, so values of variants with three or more changes are uncertain.

B1: OR4K15 (parent)
chain: GUUAACGGUCAUAGGCCAUGGAAACUAGGAGCACCAUUUCGCUGCCAGUGAAGAAAUGAACAAAGAAAAUCUGGGCCAGGCAGGCAUCAAAAGAAAUAGUCUUGCGCUCAACCAGAAAGUCUGUAAUCAUUUUAAGGGUA

Variants of: B1
Experiment: self-cleavage, relative activity (ratio to wild type); higher = more cleavage; in vitro, sequencing; the parent is a self-cleaving ribozyme
With A47C U72C A94G A96G the self-cleavage was 0.11.
Work on U12C A95G U100C yielded a self-cleavage of 1.28.
Variant A63G U108A U122C A126G A135U has a self-cleavage of 0.01.
Work on A11U A54G A82G U130C yielded a self-cleavage of 0.41.
In the case of U3A A63G A78G U132C, the self-cleavage is reported as 0.26.
U49A A52U A92G A94G showed a self-cleavage of 1.58.
Variant A55G C105U A116G has a self-cleavage of 0.02.
A68G A92G A135G showed a self-cleavage of 1.17.
Work on A5G A18G A55C U100A A111G A116G U127C A135G yielded a self-cleavage of 0.
Work on U9C U57A A64G U87C A111G yielded a self-cleavage of 0.01.
In the case of A47C U122A U132C, the self-cleavage is reported as 1.31.
Variant U12A A22U U43C A51G U100A has a self-cleavage of 1.02.
Work on A22U U37C U102C U120C yielded a self-cleavage of 2.26.
A36G A47C C81U gave a self-cleavage of 0.32.
G1A A59G A92G gave a self-cleavage of 1.47.
U9C A22G A54G A63G A66G A110U gave a self-cleavage of 1.09.
Variant C6G A47U A111U has a self-cleavage of 0.11.
U38C A59G G106A gave a self-cleavage of 0.04.
Work on A13G A59U A66U yielded a self-cleavage of 1.13.
U39C A63G A86U U120C gave a self-cleavage of 1.02.
In the case of A24G U37C A67G U131C, the self-cleavage is reported as 2.2.
A47G A62G A67G A78G C88U gave a self-cleavage of 0.13.
In the case of U19A A82U U120C, the self-cleavage is reported as 0.07.
U70C C105U A117G G137A showed a self-cleavage of 0.12.
In the case of A5G G50A C112U, the self-cleavage is reported as 0.08.
In the case of A60G U87C A114U, the self-cleavage is reported as 0.02.
In the case of U19C U26C A33U, the self-cleavage is reported as 0.61.
With A18U A78U A82G the self-cleavage was 0.07.
Work on U19A A36U G75C U130C yielded a self-cleavage of 0.08.
U9C A11U G84U U100C showed a self-cleavage of 0.38.
U9C U130C U131C gave a self-cleavage of 0.98.
For A47G U49C A60G A63G C85U A98G, the self-cleavage was 0.15.
In the case of A5G U57C U124C, the self-cleavage is reported as 1.2.
Variant A5G A64G A68G A86G has a self-cleavage of 1.04.
Variant A98G C107U A117G U130C has a self-cleavage of 0.
For U70C U97A A129G, the self-cleavage was 0.31.
In the case of A18U A23G G137A, the self-cleavage is reported as 1.86.
G7A U87C A118G showed a self-cleavage of 1.29.
With U2C A13G A95G the self-cleavage was 0.72.
Variant A95G A118G A126C has a self-cleavage of 0.61.
Work on G14U G20U A56G yielded a self-cleavage of 1.6.
With U57C A82G A96G the self-cleavage was 0.31.
With A23G A117G U122A U131A the self-cleavage was 0.67.
Variant A5G U39A A67G A118G has a self-cleavage of 1.06.
A33U U108A U124C U132C gave a self-cleavage of 0.
Variant A68G A86U A111U has a self-cleavage of 0.23.
Variant A86G U100C U132C has a self-cleavage of 2.47.
For G14A U43C U49C A118G A129G, the self-cleavage was 0.26.
A24G A27U A30G U39C U49C A54U showed a self-cleavage of 1.59.
With G15A A23G A24G the self-cleavage was 1.7.
For A30U A60U U70C, the self-cleavage was 0.65.
C16U A66G A68G gave a self-cleavage of 1.26.
With U38G A117G A126U U133G the self-cleavage was 2.03.
In the case of A67G A82U A135G, the self-cleavage is reported as 0.18.
A13G A30G A82U A95G A118G gave a self-cleavage of 0.22.
With A60G C77U A135G the self-cleavage was 2.92.
For A60U U87C G93A, the self-cleavage was 0.27.
A33G A62G A91G showed a self-cleavage of 0.89.
G8A A89U A96G gave a self-cleavage of 1.55.
Variant A55G A69G A86G has a self-cleavage of 1.41.
G21C A23G U26C gave a self-cleavage of 1.24.
A5G A51G A59U A111U A118C U122C U127C gave a self-cleavage of 0.01.
In the case of A5G A30G U87C, the self-cleavage is reported as 0.78.
In the case of A11U U38C U103C U127C, the self-cleavage is reported as 0.22.
Variant G14A U39C A67G has a self-cleavage of 1.23.
In the case of A67G A69G U103C, the self-cleavage is reported as 0.5.
A22G U87C A92G showed a self-cleavage of 1.13.
Variant A11G A47G A59G A117G A140G has a self-cleavage of 0.98.
With U39A A94U U102A U130C the self-cleavage was 0.39.
For A47U A52G A54G A56G U108A, the self-cleavage was 0.1.
A33G C85A A117C gave a self-cleavage of 0.25.
With A24U U37C A91G A140G the self-cleavage was 0.98.
In the case of A47G A91G G115A A116G A118G, the self-cleavage is reported as 0.
With A23G A56G A59G U87C A91G U100A the self-cleavage was 0.11.
For A52G A55G U130C, the self-cleavage was 0.55.
A52G A68G A78U A94G A134G gave a self-cleavage of 0.23.
Variant A13G C77U A82U U108A has a self-cleavage of 0.11.
U70C A90G U124C showed a self-cleavage of 0.31.
In the case of U39C A60G A78U, the self-cleavage is reported as 0.18.
Variant G20U A63G C88U has a self-cleavage of 1.41.
Variant A63G A66G A116G has a self-cleavage of 0.51.
A63U A64C A66G U102C A134G gave a self-cleavage of 2.69.
With U38C A67G U97C A110G the self-cleavage was 0.13.
